± gives the standard deviation of the averaged measurements. The list shows a part of the results.

In the assay the test system is PfAP2-EXP AP2 domain (GST-tagged). As to the kind of experiment: gcPBM binding intensity (ln(normalized median fluorescence intensity)); higher = stronger DNA binding. The gist of the method:
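After 1 h on an Agilent 4 × 180k array of primer-extended double-stranded 36-bp intergenic genomic probes and negative controls, bound GST-tagged P. falciparum DNA-binding domains were detected with Alexa488 anti-GST antibody and scanned at 488 nm. The domains had been expressed in E. coli, and binding took place in 1× PBS with 1% milk, 0.2 mg/ml BSA, 0.5% salmon testes DNA and 0.03% Triton X-100. Binding intensity is the highest Masliner-normalised natural-log median intensity across replicate spots of either probe orientation.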
For the sequence “AACAACCAAACGCACACACACAAAAAAAAAAATATA [CACACA_site6326]”, the “gcPBM binding intensity (ln)” value was determined as 8.46 ± 0.47. The figure for “TAATAAAATGTACACGCATGCAATAGAATATAAAGT [TGCATGCA_site905]” is 10.3 ± 0.79. The figure for “TTTGTGTAGGTGTGTAGTACATATAACTTATAACAT [XGTACX_site7885]” is 8.87 ± 0.29.

Take “ACATTTAAAATTTATGCATGTGGTGTTTTGTATATA [TGCATGCA_site534]”: the “gcPBM binding intensity (ln)” value worked out at 8.98 ± 0.36. “TGATACGTATTTATTTCACACACGTTAAAAAAATAA [CACACA_site3914]”: the “gcPBM binding intensity (ln)” value amounted to 8.38 ± 0.3. The figure for “TATATATATATATATTGTACGAACCTTTTTTTTTTT [XGTACX_site4169]” is 10.1 ± 0.18. The figure for “TAATTTTTTAAATTTAAACACACATTTTGTATATGT [CACACA_site8479]” is 8.66 ± 0.49. As for “CTAACACTAATTTTTTGTACACAATATGTAAATAAA [XGTACX_site6424]”, the “gcPBM binding intensity (ln)” value was determined as 8.45 ± 0.33. The figure for “ATTTTTACATAGGAAGCATGCATATTTTAAAAATAA [TGCATGCA_site1046]” is 9.22 ± 0.5; for “CATGTGTTCTATATTTATGTCTAACTTTTTAATTAA [CACACA_negctrl_site904]” it is 8.73 ± 0.35; for “TTATTTCTGAATATTTTTTTTTTTTCTTCTTTTTTA [CACACA_negctrl_site815]” it is 8.38 ± 0.5. The figure for “TAATGTAATACATATTGTACACATACATATATATTT [XGTACX_site7531]” is 8.47 ± 0.33; for “GGGTATACCAATATAACACACATATATCTATAATAT [CACACA_site6348]” it is 8.51 ± 0.4; for “ATATATAATCATCACACATGCAGCCCTGATGAAAAA [TGCATGCA_site687]” it is 8.77 ± 0.38.

Regarding “AATAATAAATAAAAATGTACACATACATTTCTATCC [XGTACX_site7057]”, the “gcPBM binding intensity (ln)” value is 8.2 ± 0.26.

Turning to “TATTAAAAGGTTAAAGCATGCATACATATATATGTT [TGCATGCA_site865]”, the “gcPBM binding intensity (ln)” value was 9.44 ± 0.32. The figure for TTTTTGTTACCTATTGTGCACTTCATATAAATTAAA is 9.82 ± 0.35; for “TATAAATTTTTATTTACATGCAGTTATTATTTCCAT [TGCATGCA_site41]” it is 8.95 ± 0.3; for “ATATATATATATATATGTACATATTTATATTGTAAA [XGTACX_site8878]” it is 10 ± 0.4.

As to “ATATATATATATATATATATTTATATGTGAAAACCC [CACACA_negctrl_site845]”, the “gcPBM binding intensity (ln)” value was found to be 10 ± 0.22. Regarding “ATATATATATATATGTGTACTTATATATTTAAAAAA [XGTACX_site1761]”, the “gcPBM binding intensity (ln)” value turned out to be 10 ± 0.27. The figure for TTATACCTGATTTAGGTGCTATAAATTTGTGTTTTT is 8.43 ± 0.16; for “GTAATTTTATATGGTTGTACATATATATATATATAT [XGTACX_site6659]” it is 10.2 ± 0.18; for “CAACAACAAAAAAAAAAATAATAATAATAAAAAATA [TGCATGCA_negctrl_site271]” it is 8.34 ± 0.49.

Consider “CGCATAAAGACAAGAACACACATATATATTGTAGTA [CACACA_site5938]”, for which the “gcPBM binding intensity (ln)” value was determined as 8.47 ± 0.34.

“ATATACAAAGGATTAACACACATATTATTATATATA [CACACA_site1880]”: the “gcPBM binding intensity (ln)” value is 8.43 ± 0.36. The figure for “AGAAAAAAATAATGTACACACACATATATGTTTATA [CACACA_site7946]” is 8.51 ± 0.38.

Take “TATTTTTTAAAAAAATGTCATAAAATTTCTTTTTTC [XGTACX_negctrl_site271]”: the “gcPBM binding intensity (ln)” value was found to be 8.03 ± 0.35.

Take “CTTTCTATATAAAATCGTACATATATAATATTATAT [XGTACX_site5807]”: the “gcPBM binding intensity (ln)” value came to 8.52 ± 0.38. The figure for “TAAATGTCTGTTAATGCACACGATATGTCTATATAT [CACACA_site2352]” is 8.69 ± 0.16. The figure for “TATATTAAGAAACACACACACATATATATATATATA [CACACA_site1609]” is 10.2 ± 0.3; for “GAAATTATAAATTGGACACACACATAAAAAATATGT [CACACA_site7957]” it is 8.52 ± 0.38; for “TTCCTATTTCCTATGTGTACTTATAAATAAGTGTCT [XGTACX_site3725]” it is 9.01 ± 0.39. On to “TCCGCATGTACATGGGTGCACATAACACCCATTTAA [GTGCAC_site9881]”, for which the “gcPBM binding intensity (ln)” value was found to be 8.825 ± 0.035. The figure for “TATATATAAGATTGATGTACGATTTTGGTGTCTTAT [XGTACX_site2611]” is 8.47 ± 0.33; for “TGTTATGAGAACAGCACACAAGCTACATCATATATA [CACACA_site870]” it is 8.37 ± 0.35. On to “TATTATAGTATATATTGTACATATATATATTTTTTA [XGTACX_site8831]”, for which the “gcPBM binding intensity (ln)” value was determined as 8.35 ± 0.37. The figure for “ATAATAATATATAGTACACACAAAAATGGAAGTAAA [CACACA_site3318]” is 8.97 ± 0.34; for “ATAGTTTTTCCAATTCAAAAAAAAAAAAAAAAAAAA [CACACA_negctrl_site969]” it is 7.84 ± 0.29. The figure for “TAAAAATATTATAATGCATGCAAAATATTGTTATAA [TGCATGCA_site244]” is 9.74 ± 0.014.

For the sequence “AAAGTATAAATAAATACACACATATTTATTTATATA [CACACA_site7375]”, the “gcPBM binding intensity (ln)” value was determined as 8.37 ± 0.36. The figure for “GAGAGGATCATCAATTCACACACATAAAAATGAAGT [CACACA_site9010]” is 8.54 ± 0.4. For the sequence “AACATATGATTAAACTGTACAAGAAAAATATAACAT [XGTACX_site4477]”, the “gcPBM binding intensity (ln)” value came out at 9.23 ± 0.57. The figure for “GTAATACCCAAACACACACACATACCCATATATATA [CACACA_site5510]” is 8.88 ± 0.52.
